Data from PubChem BioAssay AID1476 (National Center for Advancing Translational Sciences (NCATS), 2009).
The whole screen tested about 200,000 compounds, of which about 4,500 (2.2%) were called active. Inconclusive means that the source gave no clear call. Such entries were picked first, then a sample of the others. The call rests on the fitted dose curve; in most records, active means well fitted inhibition curve with a large enough effect; inconclusive means small, poorly fitted or top-dose-only effect, or effect the other way; inactive means flat fitted curve, though single readings scatter. Potencies beside an inconclusive call are fits to weak or partial responses and may not hold up.

biological target: Cruzipain (Trypanosoma cruzi) (UniProt P25779); assay: qHTS Assay for Promiscuous and Specific Inhibitors of Cruzain (without detergent); settings: purified cruzain, Z-FR-AMC fluorescence, no detergent; further: nearly all actives have a fitted effect of over 40% in size;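 on max response, negative = inhibition: plate controls were enzyme without inhibitor for no effect and buffer without enzyme for full effect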
UniProt P25779, sequence (P25779 whole entry, looked up): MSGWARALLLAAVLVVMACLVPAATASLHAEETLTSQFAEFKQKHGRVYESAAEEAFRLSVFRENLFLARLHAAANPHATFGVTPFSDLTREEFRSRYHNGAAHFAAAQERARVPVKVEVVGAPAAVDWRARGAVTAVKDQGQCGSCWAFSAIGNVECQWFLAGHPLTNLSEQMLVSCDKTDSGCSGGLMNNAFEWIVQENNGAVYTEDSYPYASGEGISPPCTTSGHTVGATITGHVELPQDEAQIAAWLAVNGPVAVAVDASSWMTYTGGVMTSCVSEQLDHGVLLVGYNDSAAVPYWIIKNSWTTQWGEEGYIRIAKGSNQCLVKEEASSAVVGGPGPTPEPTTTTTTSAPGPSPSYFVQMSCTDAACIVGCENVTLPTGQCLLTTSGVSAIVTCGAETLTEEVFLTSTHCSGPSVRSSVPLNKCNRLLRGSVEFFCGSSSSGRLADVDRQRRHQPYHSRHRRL
Method in brief: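 Detergent-free condition (0.00005% Triton X-100) in acetate buffer pH 5.5 with DTT. 1.5 nM enzyme and compound were pre-mixed 15 min, then 2 uM Z-FR-AMC substrate added; reaction progress from fluorescence change between first and third reads (60 s).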
Potency means the concentration at half of the fitted maximal effect; tags describe the fitted curve by direction and shape.

Compound	Potency	max response, negative = inhibition
CC(=O)CSc1nnc(NC(=O)CCc2ccccc2)s1	inconclusive: 39.8 µM [inhibitor, single point]	
COc1ccc(Cn2nnc3c(=O)[nH]c(C(=O)NCCc4ccc(F)cc4)nc32)cc1OC	inconclusive: 39.8 µM [activator, single point]	
O=C(Nc1cccc(Cl)c1)Nc1nnc(CSCCOc2ccc(Cl)cc2)s1	inconclusive: 39.8 µM [inhibitor, single point]	
O=C(Cn1c(=O)oc2cc(S(=O)(=O)N3CCCC3)ccc21)Nc1ccc(OC(F)(F)F)cc1	inconclusive: 25.1 µM [inhibitor, partial curve, poor fit]	
NC(=S)N/N=C/c1ccc(-c2cc(Cl)cc(Cl)c2)o1	active: 10 µM	
O=C(Cn1c(=O)n(Cc2ccc(F)cc2)c(=O)c2sc3ccccc3c21)NCc1ccccc1	inconclusive: 7.94 µM [inhibitor, single point]	
COc1ccc(Nc2cc(C(=O)NCc3ccccc3)c3ccccc3n2)cc1	inconclusive: 39.8 µM [inhibitor, single point]	
Cc1ccc(S(=O)(=O)c2nnn3c2nc(NCc2ccc(F)cc2)c2sccc23)cc1C		inactive: 3.68%
CCCCCCOc1ccc(N2C(=O)CC(S/C(N)=N/N=C(\C)c3cccs3)C2=O)cc1 (stereo not drawn)	inconclusive: 39.8 µM [inhibitor, single point]	
C/C(=N\NC(=O)Cc1ccc(F)cc1)c1ccc(F)cc1		inactive: 11.2%
Cc1cccc(NC(=O)CN2C(=O)COc3ccc(S(=O)(=O)Nc4ccccc4)cc32)c1C	inconclusive: 2 µM [inhibitor, partial curve, poor fit]	
N#CCSc1nc2ccccc2c(=O)n1CCC(=O)NCCc1ccccc1	inconclusive: 39.8 µM [inhibitor, single point]	
Cc1nc2ncnn2c(N2CCN(C(c3ccccc3)c3ccccc3)CC2)c1C	inconclusive: 31.6 µM [activator, single point]	
O=S(=O)(c1ccccc1)N1CCC[C@@]2(CCN(c3ccccc3)C2)C1	active: 15.8 µM	
COc1ccc(S(=O)(=O)NCC(c2ccc(N(C)C)cc2)N2CCCC2)cc1F (stereo not drawn)		inactive: 5.56%
C[C@@H](CO)NC(=O)[C@@H]1C=C2c3cccc4[nH]cc(c34)C[C@H]2N(C)C1	inconclusive: 39.8 µM [inhibitor, single point]	
O=C(CSc1nc2c([nH]c3ccccc32)c(=O)n1-c1cccc(C(F)(F)F)c1)N1CCCC1		inactive: -9.13%
O=C(Nc1ccc[n+](CC(=O)c2cccc3ccccc23)c1)c1ccccc1	inconclusive: 39.8 µM [inhibitor, single point]	
CC1(C)C(OC(=O)CCC(=O)O)CC[C@]2(C)C1CC[C@@]1(C)C2C(=O)C=C2[C@@H]3C[C@@](C)(C(=O)O)CC[C@]3(C)CCC21C (stereo partly drawn)	inconclusive: 20 µM [activator, partial curve]	
Cc1cc2c(cc1S(=O)(=O)N1CCC(C(N)=O)CC1)OCC(=O)N2		inactive: 2.11%
COc1ccc(-c2csc(-n3ncc(-c4cccs4)c3N)n2)cc1	active: 1.58 µM	

Compound	Potency	max response, negative = inhibition
COc1ccc(N2CCN(c3ccc(NC(=O)C4CCCCC4)cc3C#N)CC2)cc1	inconclusive: 15.8 µM [inhibitor, single point]	
CCCc1nc(C(C)(C)O)c(C(=O)OCc2oc(=O)oc2C)n1Cc1ccc(-c2ccccc2-c2nn[nH]n2)cc1	inconclusive: 7.94 µM [activator, full curve]	
N#Cc1c[nH]n2c(NC3CCCC3)c(-c3ccc(Br)cc3)nc12	inconclusive: 31.6 µM [activator, single point]	
Cc1c(C(=O)Nc2cccc(Cl)c2)cn2c(nc3ccccc32)c1C#N	inconclusive: 25.1 µM [inhibitor, single point]	
C=CCn1c(CSCc2ccc(Cl)cc2)nnc1SCC(=O)NCc1ccccc1	inconclusive: 25.1 µM [activator, single point]	
O=C(COC(=O)CC1CCCC1)Nc1cc2c(cc1Cl)C(=O)c1ccccc1C2=O	inconclusive: 31.6 µM [inhibitor, single point]	
CC(OC(=O)c1cc2c(ccc3ccccc32)oc1=O)c1nc2ccccc2s1 (stereo not drawn)	inconclusive: 31.6 µM [inhibitor, single point]	
CC1CCc2cc(F)ccc2N1C(=O)CSc1nnc2c3ccccc3n(C)c2n1 (stereo not drawn)	inconclusive: 39.8 µM [activator, single point]	
O=S(=O)(Nc1ccc(-c2ccc(N3CCCC3)nn2)cc1)c1ccccc1Cl	inconclusive: 39.8 µM [inhibitor, single point]	
NC(=S)N/N=C/c1cc([N+](=O)[O-])ccc1OCCOc1ccccc1	active: 0.158 µM	
CCCC(c1nnnn1CC1CCCO1)N1CCN(c2nc3ccccc3s2)CC1 (stereo not drawn)	inconclusive: 39.8 µM [activator, single point]	
COc1cc(OC)cc(-n2c3nc4ccccc4nc3c3c(=O)n(CC4CCCO4)cnc32)c1 (stereo not drawn)	inconclusive: 25.1 µM [activator, partial curve]	
O=C(COc1cccc(Cl)c1)N1CCC(c2nc3ccccc3s2)CC1	inconclusive: 20 µM [activator, partial curve]	
CCOc1ccccc1NC(=O)C(C)n1nnc2sc3c(c2c1=O)CCCC3 (stereo not drawn)		inactive: -2.14%
Cc1ccc2[nH]c(=O)c(CN(Cc3cccs3)Cc3nnnn3CC3CCCO3)cc2c1 (stereo not drawn)	inconclusive: 25.1 µM [activator, single point]	
O=C(c1ccc(Cl)cc1Cl)N1CCC(c2nc3c(nnn3Cc3ccco3)c(=O)[nH]2)CC1	inconclusive: 39.8 µM [activator, single point]	
Nc1nc(SC/C=C\c2ccccc2)c2[nH]cnc2n1		inactive: -7.97%
O=C(COC(=O)c1cc(-c2cccs2)nn1-c1ccccc1)Nc1ccc(F)c([N+](=O)[O-])c1	inconclusive: 39.8 µM [inhibitor, single point]	
CN(C)S(=O)(=O)c1cccc(N=C2NN=C(c3ccccc3)CS2)c1	active: 31.6 µM	
O=C(COC(=O)c1ccccc1NS(=O)(=O)c1cccs1)NCC12CC3CC(CC(C3)C1)C2	inconclusive: 39.8 µM [inhibitor, single point]	
O=C(CN1CCN(c2ccc(F)cc2)CC1)Nc1cccc(C(F)(F)F)c1	inconclusive: 25.1 µM [activator, single point]	

Compound	Potency	max response, negative = inhibition
CN(CC(=O)Nc1ccccc1Cl)C(=O)CSc1ncc(C(F)(F)F)cc1Cl	inconclusive: 20 µM [activator, single point]	
CC(C)NC(=O)c1cc2cc([N+](=O)[O-])ccc2s1		inactive: 8.68%
COc1ccc(C(=O)NC(=S)Nc2ccccc2N2CCN(S(C)(=O)=O)CC2)cc1OC	inconclusive: 25.1 µM [activator, partial curve]	
Cc1cc(C)nc(N2CCC(C(=O)Nc3ccc4c(c3)CCC4)CC2)n1	inconclusive: 31.6 µM [inhibitor, single point]	
C=CCNC(=O)/C(C#N)=C/c1c(N(Cc2ccccc2)Cc2ccccc2)nc2ccccn2c1=O	inconclusive: 20 µM [activator, single point]	
COc1cccc2c1Oc1ncccc1N(C(=O)CCC(=O)NC(C)C)C2		inactive: -9.49%
CCc1c(C)sc2c1CCN(C(=O)Nc1cc(Cl)c(OC)cc1OC)C2c1ccccc1 (stereo not drawn)	active: 6.31 µM	
CCOc1cc(/C=C(\C#N)C(=O)Nc2ccc(C)cc2)ccc1OCc1cc(=O)n2nc(CC)sc2n1		inactive: -10.9%
CCOC(=O)c1ccc(NC(=O)c2c(C)[nH]c(C(=O)OCC)c2C)cc1	inconclusive: 31.6 µM [activator, single point]	
Cc1nc(CS(=O)(=O)c2ccc(Cl)cc2)cc(Sc2ccc(Cl)cc2)n1	inconclusive: 31.6 µM [inhibitor, single point]	
COc1ccccc1NC(=O)CSc1nnc(Cc2cccn2C)n1CCc1ccccc1	inconclusive: 31.6 µM [activator, single point]	
COc1ccc(-c2nn(-c3ccccc3)cc2/C=C/C(=O)OCC(=O)Nc2ccc(C#N)cc2)cc1	inconclusive: 39.8 µM [inhibitor, single point]	
CCC(=O)Nc1cc(C(=O)OCc2ccc(C(=O)Oc3ccccc3)cc2)ccc1C	active: 12.6 µM	
CC(=O)Nc1ccc(NC(=O)c2cc3sccc3n2Cc2ccc(Cl)cc2)cc1	inconclusive: 25.1 µM [inhibitor, single point]	
O=C(CN1CCSc2ccccc21)N1CCCCC1		inactive: 8.45%
CCOc1ccccc1NC(=O)Cn1c(=O)n(-c2ccc(F)cc2)c(=O)c2c3c(sc21)CN(C(C)=O)CC3	inconclusive: 5.01 µM [activator, single point]	
CCc1ccc(-n2nc(C)c3c(C(=O)Nc4cc(C)c(Cl)cc4OC)cc(C)nc32)cc1		inactive: -5.21%
CCCN(C(=O)COc1cc(=O)n(CC)c2ccccc12)c1ccc(C(C)C)cc1	inconclusive: 39.8 µM [activator, single point]	
CCc1ccc(-n2c(SCc3ccccc3C)nc3[nH]ncc3c2=O)cc1		inactive: -10%
CCCCCOC(=O)C1=C(C)Nc2nnnn2C1c1ccc(OC)c(OC)c1OC (stereo not drawn)	inconclusive: 39.8 µM [activator, single point]	
COC(=O)[C@@]1(Cc2ccc(F)cc2)[C@H]2c3cc(C(=O)N(C)C)n(Cc4ccc(Cl)c(C(F)(F)F)c4)c3C[C@H]2CN1C(=O)c1ccccc1	inconclusive: 12.6 µM [activator, partial curve]	
